From the supplement of paper PMC12217912 come the findings set out here.

B1: TEV protease; numbered along this chain (parent)
chain: MGESLFKGPRDYNPISSSICHLTNESDGHTTSLYGIGFGPFIITNKHLFRRNNGTLVVQSLHGVFKVKDTTTLQQHLVDGRDMIIIRMPKDFPPFPQKLKFREPQREERICLVTTNFQTKSMSSMVSDTSCTFPSGDGIFWKHWIQTKDGQCGSPLVSTRDGFIVGIHSASNFTNTNNYFTSVPKNFMELLTNQEAQQWVSGWRLNADSVLWGGHKVFMVKPEEPFQPVKEATQL

The test covers variants of B1. The test can be described thus: raw area under fraction-flipped curve 0-4 h after induction (AUC4h, not background-subtracted), DNA-recorder readout of cleavage of the substrate (dimensionless); higher = more cleavage of the substrate by the protease variant. The settings on record: temperature: 34 °C; time window: 0-4 h after rhamnose induction. The protocol:
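In vivo DNA recorder in E. coli TOP10(DE3) ΔrhaA at 34 °C. Each TEVp single-site mutant (parent TEVp 0) is paired with a single-site variant of the 7-mer TEVs (canonical ENLYFQ|S). The substrate sits between flexible linkers in a Bxb1-sfGFP-TEVs-SsrA fusion, so cleavage stabilises Bxb1 and speeds flipping of a recombination array, read by NGS. The value is the raw area under the fraction-flipped curve over 0-4 h after rhamnose induction (AUC4h), with ≥20 reads per time point. It is not background-subtracted; inactive controls average about 0.047.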

This is one part of the list. The full chains were built here from the parent and the listed change. Inactive controls read about 0.05.
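Note: Bxb1 expression induced with 0.2% (w/v) L-rhamnose at OD600 near 0.5, cultures sampled hourly, flipped fraction per protease–substrate barcode pair counted by paired-end Illumina sequencing.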

For MGESLFKGPRDYNPISSSICHLTNESDGHTTSLYGIGFGPFIITNKHLFRRNNGTLVVQSLHGVFKVKDTTTLQQHLVDGRDMIIIRMPKDFPPFPQKLKFREPQYEERICLVTTNFQTKSMSSMVSDTSCTFPSGDGIFWKHWIQTKDGQCGSPLVSTRDGFIVGIHSASNFTNTNNYFTSVPKNFMELLTNQEAQQWVSGWRLNADSVLWGGHKVFMVKPEEPFQPVKEATQL [R106Y], the “area with substrate ENLYFQA” value was 0.0787, the “area with substrate ENLYFQC” value stood at 0.117, the “area with substrate ENLYFQG” value came to 0.116 and the “area with substrate ENLYFQI” value is 0.0533. Further, the “area with substrate ENLYFQK” value amounted to 0.0648, the “area with substrate ENLYFQL” value stood at 0.0576, the “area with substrate ENLYFQM” value is 0.0932 and the “area with substrate ENLYFQN” value is 0.0764. The “area with substrate ENLYFQP” value came to 0.066, the “area with substrate ENLYFQR” value was found to be 0.0665, the “area with substrate ENLYFQS” value was 0.101 and the “area with substrate ENLYFQT” value came to 0.0688. The “area with substrate ENLYFQV” value was 0.0575, the “area with substrate ENLYFQW” value stood at 0.0668 and the “area with substrate ENLYFQY” value worked out at 0.0622.
As to MGESLFKGPRDYNPISSSICHLTNESDGHTTSLYGIGFGPFIITNKHLFRRNNGTLVVQSLHGVFKVKDTTTLQQHLVDGRDMIIIRMPKDFPPFPQKLKFREPQREERICLVTTNFQTKSMSSMVSDTSCTFPSGDGIFWKHWIQTKDGQCGSPLVSTRDGFIVGIHSASNFTNTNNYFTSVPKNFMELLTNQEATQWVSGWRLNADSVLWGGHKVFMVKPEEPFQPVKEATQL [Q197T], the “area with substrate ENLYFQA” value turned out to be 0.0959, the “area with substrate ENLYFQF” value turned out to be 0.0486, the “area with substrate ENLYFQG” value stood at 0.0899 and the “area with substrate ENLYFQK” value turned out to be 0.0628. Also, the “area with substrate ENLYFQM” value worked out at 0.0642, the “area with substrate ENLYFQR” value was 0.0474, the “area with substrate ENLYFQS” value worked out at 0.105 and the “area with substrate ENLYFQW” value is 0.0794.
On to MGESLFKGPRDYNPISSSICHLTNESDGHTTSLYGIGFGPFIITNKHLFRRNNGTLVVQSLHGVFKVKDTTTLQQHLVDGRDMIIIRMPKDFPPFPQKLCFREPQREERICLVTTNFQTKSMSSMVSDTSCTFPSGDGIFWKHWIQTKDGQCGSPLVSTRDGFIVGIHSASNFTNTNNYFTSVPKNFMELLTNQEAQQWVSGWRLNADSVLWGGHKVFMVKPEEPFQPVKEATQL [K100C], for which the “area with substrate ENLYFQA” value came out at 0.0899, the “area with substrate ENLYFQC” value worked out at 0.102, the “area with substrate ENLYFQD” value came to 0.0464 and the “area with substrate ENLYFQE” value stood at 0.0663. Also, the “area with substrate ENLYFQG” value was 0.0974, the “area with substrate ENLYFQL” value came to 0.0535, the “area with substrate ENLYFQM” value was determined as 0.103 and the “area with substrate ENLYFQN” value stood at 0.0699. The “area with substrate ENLYFQP” value was found to be 0.0562, the “area with substrate ENLYFQR” value amounted to 0.069, the “area with substrate ENLYFQS” value stood at 0.106 and the “area with substrate ENLYFQT” value was 0.0708. In addition, the “area with substrate ENLYFQV” value amounted to 0.0584, the “area with substrate ENLYFQW” value came out at 0.0575 and the “area with substrate ENLYFQY” value is 0.0841.
Regarding MGESLFKGPRDYNPISSSICHLTNESDGHTTSLYGIGFGPFIITNKHLFRRNNGLLVVQSLHGVFKVKDTTTLQQHLVDGRDMIIIRMPKDFPPFPQKLKFREPQREERICLVTTNFQTKSMSSMVSDTSCTFPSGDGIFWKHWIQTKDGQCGSPLVSTRDGFIVGIHSASNFTNTNNYFTSVPKNFMELLTNQEAQQWVSGWRLNADSVLWGGHKVFMVKPEEPFQPVKEATQL [T55L], the “area with substrate ENLYFQA” value amounted to 0.0818, the “area with substrate ENLYFQC” value worked out at 0.103, the “area with substrate ENLYFQE” value was found to be 0.0543 and the “area with substrate ENLYFQH” value worked out at 0.0739. The “area with substrate ENLYFQI” value was 0.0571, the “area with substrate ENLYFQK” value worked out at 0.0667, the “area with substrate ENLYFQL” value is 0.0563 and the “area with substrate ENLYFQM” value is 0.082. In addition, the “area with substrate ENLYFQP” value was found to be 0.0492, the “area with substrate ENLYFQQ” value was 0.0614, the “area with substrate ENLYFQR” value stood at 0.0572 and the “area with substrate ENLYFQS” value worked out at 0.0891. The “area with substrate ENLYFQT” value was found to be 0.064, the “area with substrate ENLYFQV” value is 0.0628 and the “area with substrate ENLYFQW” value stood at 0.0607.
As for MGESLFKGPRDYNPISSSICHLTNESDGHTTSLYGIGFGPFIITNKHLFRRNNGTLVVQSLHGVFKVKDTTTLQQHLVDGRDMIIIRMPKDFPPFPQKLKFREPQREERICLVTTNFQTKSMSSMVSDTSCTIPSGDGIFWKHWIQTKDGQCGSPLVSTRDGFIVGIHSASNFTNTNNYFTSVPKNFMELLTNQEAQQWVSGWRLNADSVLWGGHKVFMVKPEEPFQPVKEATQL [F133I], the “area with substrate ENLYFQA” value was found to be 0.109, the “area with substrate ENLYFQC” value came out at 0.126, the “area with substrate ENLYFQD” value came out at 0.0827 and the “area with substrate ENLYFQE” value amounted to 0.0556. Besides, the “area with substrate ENLYFQF” value was found to be 0.0904, the “area with substrate ENLYFQG” value was determined as 0.112, the “area with substrate ENLYFQM” value was determined as 0.0727 and the “area with substrate ENLYFQP” value is 0.0391. Besides, the “area with substrate ENLYFQR” value amounted to 0.0517, the “area with substrate ENLYFQS” value is 0.106 and the “area with substrate ENLYFQV” value was 0.063.
As to MGESLFKGPRDYNPISSSICHLTNESDGHTTSLYGIGFGPFIITNKHLFRRNNGTLVVQSLHGVFKVKDTTTLQQHLVDGRDMIIIRMPKDFPPFPQKLKFREPQREERICLVTTNFQTKSMSSMVSDTSCTFPSGDGIFWKHWIQTKDGQCGSPLVSTRDGFIVGIHSASNFTNTNNYFTSVPKNFMELLTNQEAQQWVSGWRLNGDSVLWGGHKVFMVKPEEPFQPVKEATQL [A207G], the “area with substrate ENLYFQA” value is 0.105, the “area with substrate ENLYFQC” value was found to be 0.12, the “area with substrate ENLYFQH” value was 0.0884 and the “area with substrate ENLYFQI” value was determined as 0.0576. Moreover, the “area with substrate ENLYFQK” value came to 0.0626, the “area with substrate ENLYFQL” value turned out to be 0.0643, the “area with substrate ENLYFQM” value was 0.0784 and the “area with substrate ENLYFQR” value turned out to be 0.0595. Also, the “area with substrate ENLYFQS” value was 0.108 and the “area with substrate ENLYFQW” value was 0.0639.
MGESLFKGPRDYNPISSSICHLTNESDGHTTSLYGIGFGPFIITNKHLFRRNNGTLVVQSLHGVFKVKDTTTLQQHLVDGRDMIIIRMPKDFPPCPQKLKFREPQREERICLVTTNFQTKSMSSMVSDTSCTFPSGDGIFWKHWIQTKDGQCGSPLVSTRDGFIVGIHSASNFTNTNNYFTSVPKNFMELLTNQEAQQWVSGWRLNADSVLWGGHKVFMVKPEEPFQPVKEATQL [F95C]: the “area with substrate ENLYFQA” value came out at 0.089, the “area with substrate ENLYFQC” value was 0.098, the “area with substrate ENLYFQG” value was found to be 0.108 and the “area with substrate ENLYFQL” value was found to be 0.0597. Further, the “area with substrate ENLYFQN” value came to 0.0601, the “area with substrate ENLYFQS” value was 0.0844 and the “area with substrate ENLYFQY” value worked out at 0.0544.
Turning to MGESLFKGPRDYNPISSSICHLTNESDGHTTSLYGIGFGPFIITNKHLFRRNNGTLVVQSLHGVFKVKDNTTLQQHLVDGRDMIIIRMPKDFPPFPQKLKFREPQREERICLVTTNFQTKSMSSMVSDTSCTFPSGDGIFWKHWIQTKDGQCGSPLVSTRDGFIVGIHSASNFTNTNNYFTSVPKNFMELLTNQEAQQWVSGWRLNADSVLWGGHKVFMVKPEEPFQPVKEATQL [T70N], the “area with substrate ENLYFQA” value stood at 0.0683, the “area with substrate ENLYFQF” value was determined as 0.0754, the “area with substrate ENLYFQI” value was 0.0611 and the “area with substrate ENLYFQK” value is 0.057. Besides, the “area with substrate ENLYFQL” value is 0.0561, the “area with substrate ENLYFQM” value came to 0.0716, the “area with substrate ENLYFQQ” value was 0.065 and the “area with substrate ENLYFQR” value stood at 0.0552. The “area with substrate ENLYFQS” value is 0.0755, the “area with substrate ENLYFQT” value worked out at 0.0697 and the “area with substrate ENLYFQV” value was found to be 0.0537.
Turning to MGESLFKGPRDYNPISSSICHLTNESDGHTTSLYGIGFGPFIITNKHLFRRNNGTLVVQSLHGVFKVKDTTTLQQHLVDGRDMIIIRMPKDFPPFPQKLKFREPQREERICLVTTNFQTKSMSSMVSDTSCTFPSGDGIFWKHWIQTKDGQCGSPLVSTRDGFIYGIHSASNFTNTNNYFTSVPKNFMELLTNQEAQQWVSGWRLNADSVLWGGHKVFMVKPEEPFQPVKEATQL [V165Y], the “area with substrate ENLYFQA” value is 0.0292, the “area with substrate ENLYFQF” value was found to be 0.0494, the “area with substrate ENLYFQG” value amounted to 0.0208 and the “area with substrate ENLYFQH” value was found to be 0.067. The “area with substrate ENLYFQI” value was determined as 0.0489, the “area with substrate ENLYFQK” value was determined as 0.0419, the “area with substrate ENLYFQN” value is 0.0403 and the “area with substrate ENLYFQP” value was determined as 0.0504. In addition, the “area with substrate ENLYFQQ” value stood at 0.0498, the “area with substrate ENLYFQR” value was 0.0518, the “area with substrate ENLYFQS” value was 0.0524 and the “area with substrate ENLYFQT” value is 0.054. The “area with substrate ENLYFQV” value was found to be 0.0477, the “area with substrate ENLYFQW” value was found to be 0.0575 and the “area with substrate ENLYFQY” value turned out to be 0.0433.
For the variant MGESLFKGPRDYNPISSSICHLTNESDGHTTSLYGIGFGPFIITNKHLFRRNNGTLVVQSLHGVFKVKDTTTDQQHLVDGRDMIIIRMPKDFPPFPQKLKFREPQREERICLVTTNFQTKSMSSMVSDTSCTFPSGDGIFWKHWIQTKDGQCGSPLVSTRDGFIVGIHSASNFTNTNNYFTSVPKNFMELLTNQEAQQWVSGWRLNADSVLWGGHKVFMVKPEEPFQPVKEATQL [L73D], the “area with substrate ENLYFQA” value is 0.0537, the “area with substrate ENLYFQC” value stood at 0.0525, the “area with substrate ENLYFQF” value was 0.0384 and the “area with substrate ENLYFQG” value was 0.0455. Further, the “area with substrate ENLYFQH” value was 0.05, the “area with substrate ENLYFQI” value turned out to be 0.0268, the “area with substrate ENLYFQK” value stood at 0.0648 and the “area with substrate ENLYFQL” value stood at 0.051. The “area with substrate ENLYFQM” value worked out at 0.0412, the “area with substrate ENLYFQN” value turned out to be 0.0386, the “area with substrate ENLYFQR” value is 0.046 and the “area with substrate ENLYFQS” value is 0.0542. In addition, the “area with substrate ENLYFQW” value was found to be 0.0641 and the “area with substrate ENLYFQY” value stood at 0.0492.
